Laboratory results reported in PubChem BioAssay (NCI).
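Each compound was tested at five concentrations against cells in 96-well plates for 48 hours. GI50 = concentration required for 50% inhibition of growth. TGI: total growth inhibition.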

The molecules below were run on NCI-H322M lung (assay: NCI tumour cell line growth inhibition, 48 h).

`CC1(C)S[C@@H]2[C@H](N3C(=O)c4ccccc4C3=O)CN2[C@H]1NC(=O)N[C@@H]1N2C[C@@H](N3C(=O)c4ccccc4C3=O)[C@H]2SC1(C)C` and `CSc1c(C2=C(c3cn(C)c4ccccc34)C(=O)NC2=O)c2ccccc2n1C` cannot be ordered by TGI: > 100 µM for the first, > 25 µM for the second.

Going from `Cc1c(C)c(C)c(Cn2[nH]c(=O)n(C)c2=O)c(C)c1C` to `CC1=C2CC(C)(C)/C=C\C(=O)/C(C)=C\C3=C[C@H](C)C[C@]3(O2)C1=O`, the TGI falls from > 100 µM to 12.1 µM.

`COc1cc2c(c(OC)c1OC)-c1ccc(SC)c(=O)cc1C(CC(=O)Oc1cccc([N+](=O)[O-])c1)C2` (stereo not drawn) and `COc1cc(CSc2ccc(O)cc2)cc(OC)c1OC` cannot be ordered by TGI: > 57.4 µM for the first, > 100 µM for the second.

Going from `O=C1/C(=C/c2ccccc2)CN(C(=O)C(Cl)Cl)C/C1=C\c1ccccc1` to `O=c1c2ccccc2[nH]n1Cc1ccccc1`, the TGI rises from 2.84 µM to > 100 µM.

`CCOC(=O)C(=O)Nc1nc2c(OCC)cccc2s1` and `CCOC(=O)C1SC(=Nc2ccc(OC)c(OC)c2)N=C1C` (stereo not drawn) cannot be ordered by TGI: > 100 µM for the first, > 100 µM for the second.

`Cc1c(-c2ccc(C3CCCCC3)cc2)nc2ccc(F)cc2c1C(=O)O` and `COc1ccc(C2=NN(c3ccccc3)C[N+](c3ccc(C)cc3)=N2)cc1` cannot be ordered by TGI: > 100 µM for the first, > 100 µM for the second.

`CSC1NC(c2ccccc2)=C(C#N)C(=O)N1C1OCC(OC(C)=O)C(OC(C)=O)C1OC(C)=O` (stereo not drawn) and `CCOC(=O)CC(c1ccccc1)C(C)(C(=O)OCC)C(=O)OCC` (stereo not drawn) cannot be ordered by TGI: > 100 µM for the first, > 100 µM for the second.

`O=P1(c2ccccc2)c2ccccc2-c2ccccc21` and `O=c1[nH]c2ccccc2c2nc3ccccc3n12` cannot be ordered by TGI: > 100 µM for the first, > 100 µM for the second.

Going from `COc1cc(C(=O)O[C@H](C(=O)NCCCNC(=O)[C@@H](OC(=O)c2cc(OC)cc3c(C)cccc23)[C@]2(C)CO2)[C@]2(C)CO2)c2cccc(C)c2c1` to `COc1cc(OC)cc(-c2ccc(-c3ccc(C(=N)N)cn3)o2)c1`, the TGI rises from 0.916 µM to 3.05 µM (3.3-fold).

`S=C(NCCc1ccccn1)N/N=C/c1ccccn1` and `Cc1nc(SCC(=O)Nc2ccc(Cl)cc2)c2sc(=S)n(-c3ccccc3)c2n1` cannot be ordered by TGI: > 100 µM for the first, > 10 µM for the second.

Compared with `O=S(=O)([O-])c1ccc(N=Cc2ccccc2[O-])cc1.O=S(=O)([O-])c1ccc(N=Cc2ccccc2[O-])cc1.[Co+2]`, `Cc1ccc(C2(c3ccc(Cl)cc3)c3ccccc3C3=NCCN32)cc1` (stereo not drawn) is lower in TGI: > 100 µM for the first, 22.5 µM for the second.

Going from `NCCSc1cc(O)c2c(c1N)C(=O)c1ccccc1C2=O` to `CN(C)CCN1C(=O)c2cccc3cc([N+](=O)[O-])cc(c23)C1=O`, the TGI falls from > 100 µM to 8.71 µM.

First: CC(=O)/C(=C/c1ccccc1)C(=O)CC(C)C
Second: CSC(=NC#N)S/C=C/C(=O)c1ccccc1
The TGI of the first is lower: 34.3 µM for the first, > 100 µM for the second.

`Nc1ccc2[nH]c(-c3cccc(C(F)(F)F)c3)cc(=O)c2c1` and `Cc1ccc(C(=O)Nc2ccc(CP(=O)(O)O)cc2)cc1NC(=O)c1cccc(N)c1` cannot be ordered by TGI: > 100 µM for the first, > 100 µM for the second.

Going from `COc1cc2c(cc1OC)C1C(=O)c3c(O)cc4c(c3OC1CO2)C=CC(C)(C)O4` (stereo not drawn) to `COc1ccc(/C=C2/CSCC3=C2NC(=S)NC3c2ccc(OC)c(OC)c2OC)c(OC)c1OC` (stereo not drawn), the TGI falls from > 100 µM to 64.3 µM.

`C[C@H]1/C(=C/C(=O)OCCN(C)C)CC[C@H]2[C@H]1C(=O)C[C@H]1C(C)(C)[C@@H](O)CC[C@]21C` and `CO[C@H]1C=CO[C@@]2(C)Oc3c(C)c(O)c4c(O)c(c(CN5CCN(C)CC5)c(O)c4c3C2=O)NC(=O)/C(C)=C\C=C[C@H](C)[C@H](O)C(C)[C@@H](O)C(C)[C@H](OC(C)=O)[C@@H]1C` (stereo partly drawn) cannot be ordered by TGI: > 100 µM for the first, > 100 µM for the second.

Compared with `COc1cc(C)c(/C=C2/N=C(c3ccccc3)OC2=O)c([N+](=O)[O-])c1OC`, `COc1cccc(/C=C/C(=O)c2ccc(SC)cc2)c1OC` is lower in TGI: > 100 µM for the first, 30.7 µM for the second.

`Cn1c(=O)c(Oc2ccc(F)cc2F)cc2cnc(NC(C)(C)CO)nc21` and `CCCCn1c(CSc2ccc(Cl)cc2)c(C(=O)OCC)c2cc(OC)c(Br)cc21` cannot be ordered by TGI: > 25 µM for the first, > 100 µM for the second.

Compared with `COc1cc(-c2nc3ccc(N4CCN(C)CC4)cc3[nH]2)c(OC)c2[nH]c(COC(C)=O)nc12`, `COc1ccc2c(c1)c(-c1nc(-c3c[nH]c4ncccc34)cs1)cn2CCCN1CCCCC1` is lower in TGI: > 100 µM for the first, 3.16 µM for the second.

`CCCCOC(=O)c1ccc(N)cc1` and `NNC(=O)CC(=O)Nc1cccc(Cl)c1` cannot be ordered by TGI: > 100 µM for the first, > 100 µM for the second.

First: CCC[CH2][Sn]([CH2]CCC)([O]c1cccc2cccnc12)[O]c1cccc2cccnc12
Second: CC1(C)[C@@H]2C[C@H]1[C@@H](Cc1cccc(C[C@H]3c4cc(-c5ccccn5)ncc4[C@H]4C[C@@H]3C4(C)C)c1)c1cc(-c3ccccn3)ncc12
The TGI of the first is lower: 1.19 µM for the first, > 92.7 µM for the second.

First: CN(CC(=O)O)c1ncc2c(n1)C=CCC2
Second: Cc1cc(Cl)nc2nc(Cl)c(N)cc12
The TGI of the first is higher: > 100 µM for the first, 25.4 µM for the second.

First: CCOC(=O)/C=C(\C(=O)OCC)n1ccc(=O)n(Cc2cnnn2CCCCOC(C)=O)c1=O
Second: O=C(/C=C/c1ccc(Cl)cc1)c1ccccc(=O)c1O
The TGI of the first is 2.3-fold higher: 36.8 µM for the first, 15.7 µM for the second.

First: Cc1cccc(Br)[n+]1[O-]
Second: CN(C)c1ccc(/C=C/c2ccc(S(N)(=O)=O)cc2)cc1
The TGI of the first is higher: > 100 µM for the first, 43.4 µM for the second.

`O=C1C(=C(C(F)(F)Cl)C(F)(F)Cl)C2CCC1C2` (stereo not drawn) and `C=C1CC2(CC(c3ccccc3Cl)OC(c3ccccc3Cl)C2)OC1=O` (stereo not drawn) cannot be ordered by TGI: > 10 µM for the first, 19.9 µM for the second.

First: O=C1/C(=C/c2ccccc2)CN(C(=O)C(Cl)Cl)C/C1=C\c1ccccc1
Second: CSc1c(C2=C(c3cn(C)c4ccccc34)C(=O)NC2=O)c2ccccc2n1C
The GI50 of the first is 1.6-fold higher: 1.45 µM for the first, 0.903 µM for the second.

`Cc1c(-c2ccc(C3CCCCC3)cc2)nc2ccc(F)cc2c1C(=O)O` and `COc1cccc(/C=C/C(=O)c2ccc(SC)cc2)c1OC` are within 1.5-fold of each other in GI50: 12.6 µM for the first, 16.4 µM for the second.

Compared with `COc1cc(C(=O)O[C@H](C(=O)NCCCNC(=O)[C@@H](OC(=O)c2cc(OC)cc3c(C)cccc23)[C@]2(C)CO2)[C@]2(C)CO2)c2cccc(C)c2c1`, `COc1cc(OC)cc(-c2ccc(-c3ccc(C(=N)N)cn3)o2)c1` is 11-fold higher in GI50: 0.143 µM for the first, 1.6 µM for the second.

Going from `O=S(=O)([O-])c1ccc(N=Cc2ccccc2[O-])cc1.O=S(=O)([O-])c1ccc(N=Cc2ccccc2[O-])cc1.[Co+2]` to `CCC[CH2][Sn]([CH2]CCC)([O]c1cccc2cccnc12)[O]c1cccc2cccnc12`, the GI50 falls from > 100 µM to 0.377 µM.

Compared with `CC(=O)/C(=C/c1ccccc1)C(=O)CC(C)C`, `CSC(=NC#N)S/C=C/C(=O)c1ccccc1` is higher in GI50: 18.9 µM for the first, > 100 µM for the second.

First: Cn1c(=O)c(Oc2ccc(F)cc2F)cc2cnc(NC(C)(C)CO)nc21
Second: COc1ccc2c(c1)c(-c1nc(-c3c[nH]c4ncccc34)cs1)cn2CCCN1CCCCC1
The GI50 of the first is higher: > 25 µM for the first, 1.64 µM for the second.

For `CCCCOC(=O)c1ccc(N)cc1`, the GI50 was > 100 µM.
